Common to all, as to assay: Viability of human cancer cell lines after 72 h of drug (GDSC screen)
Compound in one assay: C=C(c1ccc(C(=O)O)cc1)c1cc2c(cc1C)C(C)(C)CCC2(C)C [Bexarotene]
Conditions: top dose 8 µM. Here is the method: (§1)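 Human cancer cell lines in 384-well plates, medium with 10% serum, drug for 72 h over a 256-fold dose range (nine 2-fold or five 4-fold steps up to the top dose). Adherent lines were fixed and stained with the nucleic acid dye Syto60, suspension lines read with resazurin; signal relative to control wells, capped at 0 and 100%. One two-parameter sigmoid per drug and line, fitted in a mixed model over all curves with the slope shared within a line.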

Compound in the next assay: NC(=O)Nc1cc(-c2cccc(F)c2)sc1C(=O)N[C@H]1CCCNC1 [AZD7762]
Conditions: top dose 2 µM. How it is done: as §1

Compound in another assay: COc1cc([C@@H]2c3cc4c(cc3[C@@H](O[C@@H]3O[C@@H]5CO[C@@H](C)O[C@H]5[C@H](O)[C@H]3O)[C@H]3COC(=O)[C@H]23)OCO4)cc(OC)c1O [Etoposide]
To be noted: top dose 16 µM. How it is done: as §1

Compound in the next assay: O=C(O)c1ccc(-c2c[nH]c3ncc(-c4ccccc4)cc23)cc1C1CCCC1 [GSK-650394]
To be noted: top dose 16 µM; top dose inferred. How it is done: as §1

Compound in another assay: COc1cc(C(=O)NC2CCN(C)CC2)ccc1Nc1ncc2c(n1)N(C1CCCC1)C(C)CC(=O)N2C [NPK76-II-72-1]
To be noted: top dose 10.24 µM; top dose inferred. Here is the method:
as §1

Compound in another assay: COc1ccc(C(=O)CC2(O)C(=O)Nc3c(Cl)ccc(Cl)c32)cc1 [YK 4-279]
To be noted: top dose 10 µM. How it is done: as §1

Compound in the next assay: Oc1nc(-c2ccc(C(F)(F)F)cc2)nc2c1CSCC2 [XAV 939]
To be noted: top dose 5 µM; top dose inferred. How it is done: as §1

Compound in the next assay: Cc1ccc2nc(NCCN)c3ncc(C)n3c2c1 [BMS-345541]
To be noted: top dose 16 µM. Here is the method:
as §1

The IC50 comes from the fitted curve, where viability falls to half of the control; a limit (>, <) means that the fit lies beyond the doses tested. The AUC spans the tested range (256-fold, ending at the top dose) of the same fit; the more sensitive the line, the further below 1. For part of these data: The top dose, if marked as inferred, is not printed in the source and was worked back from the curve model.

On to “AMO-1 (haematopoietic neoplasm, suspension)”, for which the AUC stood at 0.981 with Bexarotene; 0.736 in the assay with AZD7762; 0.887 in the assay with Etoposide; 0.935 with GSK-650394; 0.555 with NPK76-II-72-1; 0.565 with YK 4-279. The AUC in the assay with XAV 939 stood at 0.982; with BMS-345541 it was 0.842. The concentration for half-maximal inhibition (IC50) in the assay with Bexarotene is above 8000 nM; in the assay with AZD7762 it was 524 nM; with Etoposide, 13400 nM; with GSK-650394 it was above 16000 nM; with NPK76-II-72-1 it was 881 nM; with YK 4-279, 915 nM. Also, the IC50 is above 5000 nM with XAV 939 and 8950 nM in the assay with BMS-345541.

For AN3-CA (endometrium, adherent), the AUC in the assay with Bexarotene was determined as 0.879; with AZD7762 it was 0.777; in the assay with Etoposide, 0.645; with GSK-650394 it was 0.74; in the assay with NPK76-II-72-1, 0.88; with YK 4-279 it was 0.71. Further, the values for the AUC in the assay with XAV 939 and with BMS-345541 were 0.978 and 0.918, respectively. Further, the IC50 with Bexarotene was above 8000 nM; with AZD7762 it was 879 nM; in the assay with Etoposide it was 2620 nM; with GSK-650394, 5220 nM; with NPK76-II-72-1, above 10200 nM; with YK 4-279 it was 2600 nM. Moreover, the values for the IC50 with XAV 939 and in the assay with BMS-345541 were above 5000 nM and above 16000 nM, respectively.

Turning to ARH-77 (myeloma, suspension), the AUC in the assay with Bexarotene turned out to be 0.97; in the assay with AZD7762, 0.652; in the assay with Etoposide, 0.643; with GSK-650394, 0.943; with NPK76-II-72-1 it was 0.724; in the assay with YK 4-279, 0.644. Further, the AUC turned out to be 0.971 with XAV 939 and 0.811 in the assay with BMS-345541. The IC50 with Bexarotene is above 8000 nM; with AZD7762, 325 nM; with Etoposide it was 2440 nM; in the assay with GSK-650394, above 16000 nM; with NPK76-II-72-1 it was 2680 nM; with YK 4-279, 1540 nM. The half-maximal inhibitory concentration (IC50) with XAV 939 is above 5000 nM; in the assay with BMS-345541, 8120 nM.

For ASH-3 (thyroid, adherent), the AUC was 0.927 with Bexarotene; 0.727 with AZD7762; 0.561 with Etoposide; 0.601 with GSK-650394; 0.988 with NPK76-II-72-1; 0.545 with YK 4-279. Moreover, the AUC in the assay with XAV 939 was found to be 0.987; with BMS-345541, 0.918. Also, the half-inhibitory concentration (IC50) with Bexarotene was above 8000 nM; in the assay with AZD7762, 553 nM; with Etoposide, 1470 nM; in the assay with GSK-650394, 1890 nM; in the assay with NPK76-II-72-1, above 10200 nM; with YK 4-279, 830 nM. The values for the IC50 with XAV 939 and in the assay with BMS-345541 were above 5000 nM and above 16000 nM, respectively.

As to BB49-HNC (head and neck, adherent), the AUC with Bexarotene was 0.978; with AZD7762, 0.818; with Etoposide, 0.909; with GSK-650394, 0.911; in the assay with NPK76-II-72-1, 0.978; with YK 4-279, 0.674. The values for the AUC with XAV 939 and with BMS-345541 were 0.939 and 0.974, respectively. The IC50 with Bexarotene was above 8000 nM; with AZD7762 it was 1790 nM; with Etoposide, above 16000 nM; with GSK-650394, above 16000 nM; with NPK76-II-72-1, above 10200 nM; in the assay with YK 4-279 it was 2350 nM. The IC50 in the assay with XAV 939 is above 5000 nM; in the assay with BMS-345541, above 16000 nM.

With BB65-RCC (kidney, adherent), the AUC in the assay with Bexarotene amounted to 0.882; with AZD7762 it was 0.618; with Etoposide it was 0.452; in the assay with GSK-650394, 0.89; in the assay with NPK76-II-72-1, 0.954; with YK 4-279, 0.738. The AUC stood at 0.942 with XAV 939 and 0.908 in the assay with BMS-345541. In addition, the IC50 was above 8000 nM with Bexarotene; 278 nM in the assay with AZD7762; 724 nM with Etoposide; above 16000 nM with GSK-650394; above 10200 nM with NPK76-II-72-1; 3360 nM in the assay with YK 4-279. Besides, the IC50 with XAV 939 was above 5000 nM; with BMS-345541, above 16000 nM.

As to BC-1 (B-cell lymphoma, suspension), the AUC with Bexarotene is 0.965; with AZD7762, 0.91; in the assay with Etoposide it was 0.402; with GSK-650394, 0.709; with NPK76-II-72-1 it was 0.667; with YK 4-279, 0.498. The AUC with XAV 939 turned out to be 0.937; with BMS-345541, 0.807. In addition, the 50% inhibitory concentration (IC50) was above 8000 nM with Bexarotene; above 2000 nM in the assay with AZD7762; 562 nM in the assay with Etoposide; 3490 nM with GSK-650394; 1730 nM with NPK76-II-72-1; 619 nM in the assay with YK 4-279. Moreover, the IC50 is above 5000 nM with XAV 939 and 6780 nM with BMS-345541.

As to BE2-M17 (neuroblastoma, adherent), the AUC in the assay with Bexarotene is 0.982; in the assay with AZD7762, 0.769; in the assay with Etoposide it was 0.855; with GSK-650394, 0.986; with NPK76-II-72-1, 0.89; in the assay with YK 4-279 it was 0.684. Besides, the AUC with XAV 939 stood at 0.984; with BMS-345541, 0.939. Further, the half-maximal inhibitory concentration (IC50) was above 8000 nM with Bexarotene; 774 nM in the assay with AZD7762; 13400 nM with Etoposide; above 16000 nM in the assay with GSK-650394; above 10200 nM with NPK76-II-72-1; 2070 nM with YK 4-279. Moreover, the figures for the IC50 with XAV 939 and with BMS-345541 were above 5000 nM and above 16000 nM, respectively.

BFTC-905 (bladder, adherent): the AUC with Bexarotene is 0.913; with AZD7762, 0.829; with Etoposide, 0.394; in the assay with GSK-650394, 0.462; with NPK76-II-72-1, 0.859; in the assay with YK 4-279, 0.552. The results for the AUC with XAV 939 and with BMS-345541 were 0.939 and 0.893, respectively. For the same cell line, the IC50 in the assay with Bexarotene was above 8000 nM; in the assay with AZD7762, 1020 nM; with Etoposide it was 534 nM; in the assay with GSK-650394, 800 nM; with NPK76-II-72-1 it was 6660 nM; with YK 4-279 it was 851 nM. Besides, the IC50 with XAV 939 is above 5000 nM; in the assay with BMS-345541, 14400 nM.

For the origin of these results see the supplement of paper PMC4967469.
